# From PubChem BioAssay AID686971 (National Center for Advancing Translational Sciences (NCATS), 2013)
# About 7,500 (2.1%) of roughly 360,000 compounds were called active. The inconclusive results got no clear call from the source; some entries with a clear call stand among them for comparison. Calls follow the shape of the dose curve; as a rule, active = well fitted cell-killing curve with a large enough effect; inconclusive = small, poorly fitted or top-dose-only effect, or effect the other way, or another doubt; inactive = no such curve, though single readings can be large or run the other way. No potency is given beside an inconclusive call; the fits are too rough.
# Test: qHTS for induction of synthetic lethality in tumor cells producing 2HG: qHTS for the HT-1080-IDH1KD cell line;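 as to activity, negative = toxicity: 0% = DMSO wells and -100% = cell-free medium wells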
# Details: HT-1080 IDH1 knockdown viability, ATP luminescence, 48 h; activity, negative = toxicity: at 46.1 µM (top of the series) unless noted
# Procedure, shortened: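 % activity derives from luminescence (CellTiter-Glo), normalised to DMSO and no-cell wells. HT-1080-IDH1KD cells, 750/well, had 48 h compound exposure at 37 °C.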
# Potency is read from the fitted curve at half-maximal effect; tags tell the direction and shape of the fitted curve.
Structure (SMILES),Potency,"activity, negative = toxicity"
C=C1CCC[C@]2(C)C[C@H]3OC(=O)C(CNCCN(CC)CC)[C@H]3CC12 (stereo partly drawn),"inconclusive [cytotoxic, single point]",
O=C1CC(N(CCc2ccccc2)C(=S)Nc2ccccc2)C(=O)N1c1ccccc1 (stereo not drawn),"inconclusive [cytotoxic, single point]",
CCN(CCO)c1ccc(NC(=S)Nc2cccc(S(=O)(=O)N(C)C)c2)cc1,,inconclusive: -37.2% [cytotoxic]
COc1cccc2c1C(CO)N1C(C#N)C3CC(C(=O)O)C(C1C2)N3C (stereo not drawn),"inconclusive [cytotoxic, full curve, poor fit]",
CCn1c(=O)c(C(=O)Nc2ccccc2S(N)(=O)=O)c(O)c2ccccc21,"inconclusive [cytotoxic, single point]",
COc1cc(C(=O)N2CCN(c3cc(Cl)ccc3Cl)CC2)cc(OC)c1OC,active: 0.651 µM,
COc1ccc(C(CCNCc2ccccc2)c2ccc(F)cc2)cc1 (stereo not drawn),active: 16.4 µM,
CC(=O)Nc1ccc(/C=C2\CCc3ccccc3C2=O)cc1,"inconclusive [cytotoxic, single point]",
CCOc1ccc(-c2ccc(SC)nn2)cc1,active: 23.1 µM,
C#CCOCCOCCOCCNc1nc(N2CCN(C(=O)CCCCCCCCCCNC(=O)Cn3cc(C[C@@H](C)O)nn3)CC2)nc(N2CCN(C(=O)CCCCCCCCCCNC(=O)[C@@H](CCSC)n3cc(CCO)nn3)CC2)n1,active: 20.6 µM,
O=C1NC[C@@H](CCCCN2C[C@H](Cc3ccccc3)N(CCC3CCCCC3)C(=O)C2=O)N(CCc2ccccc2)C1=O,"inconclusive [cytotoxic, partial curve]",
O=c1[nH]c2ccc(S(=O)(=O)N3CCN(c4ccccc4F)CC3)cc2s1,"inconclusive [cytotoxic, single point]",
O=C(COC(=O)c1ccccc1O)NCCC1=CCCCC1,inactive,
CCOC(=O)c1c(C)[nH]c(C2=NNC(=Nc3ccccc3)SC2)c1C,"inconclusive [cytotoxic, single point]",
CCn1c2ccccc2c2nc3cc(OC)c(OC)cc3nc21,"inconclusive [cytotoxic, partial curve]",
C=CCNc1nc(Nc2ccc(-c3nc4ccccc4o3)cc2)nc(N2CCOCC2)n1,"inconclusive [cytotoxic, single point]",
c1ccc2c(c1)oc1c(Nc3ccc4c(c3)OCCO4)ncnc12,"inconclusive [cytotoxic, single point]",
COc1ccc(C=NN=C2c3ccccc3-c3ccccc32)cc1O,"inconclusive [cytotoxic, single point]",
